Data from paper PMC11149917, “Translational and Therapeutic Evaluation of RAS-GTP Inhibition by RMC-6236 in RAS-Driven Cancers” (Cancer Discovery, 2024).
Values joined by “and” are separate entries in the source; they are usually repeats but may differ in a detail not shown here. Equal values may be shown once. Further values from the same series stand in other lists.

Assay: Mouse blood and tissue PK (LC/MS-MS)
Assay type: in vivo
Description: For single-dose PKPD study, mice were randomized and assigned into groups (n = 3/dose/time point). […] Blood and tissues, including the tumor, brain, colon, ear skin, and muscle, were harvested at indicated time points. […] The whole blood, tumor, brain, colon, and ear skin concentrations of RMC-6236 were determined using liquid chromatography–tandem mass spectrometry (LC/MS-MS) methods. […] After thorough mixing and centrifugation, the supernatant was diluted with water or directly analyzed on a Sciex 5500 or Sciex 6500+ triple quadrupole mass spectrometer equipped with an ACQUITY or Shimadzu UPLC system. […] Bioanalysis on blood and tissue samples from xenograft models was run at Pharmaron and Wuxi AppTec. Concentrations reported as below the quantification limit were treated as zero for PK analysis. PK parameters were calculated by noncompartmental analysis of the concentration–time profiles using Phoenix WinNonLin (version 8.3 Certara). Apparent terminal elimination half-life (t1/2) values were calculated as ln(2)/k, where k represents the terminal elimination rate constant. Area under the concentration–time curve (AUC) values were estimated using a linear trapezoidal method. AUClast values were calculated from the dosing time to the last quantifiable concentration. Maximum concentration (Cmax) was recorded as observed.

CCn1c(-c2cc(N3CCN(C)CC3)cnc2[C@H](C)OC)c2c3cc(ccc31)-c1csc(n1)C[C@H](NC(=O)[C@H]1C[C@@H]1C)C(=O)N1CCC[C@H](N1)C(=O)OCC(C)(C)C2 [RMC-6236]
RMC-6236 (nM) Tumor (NCI-H441 xenograft tumor, study NCI-H441#8, 40 mg/kg, 8h): 3243 nM and 4081 nM
RMC-6236 (nM) Tumor (NCI-H441 xenograft tumor, study NCI-H441#10, 0.3 mg/kg, 24h): 40.7 nM and 58.2 nM
RMC-6236 (nM) Tumor (NCI-H441 xenograft tumor, study NCI-H441#10, 1 mg/kg, 8h): 157 nM and 88.8 nM
RMC-6236 (nM) Tumor (NCI-H441 xenograft tumor, study NCI-H441#10, 10 mg/kg, 8h): 808 nM and 727 nM
RMC-6236 (nM) Tumor (NCI-H441 xenograft tumor, study NCI-H441#10, 10 mg/kg, 24h): 343 nM and 384 nM
RMC-6236 (nM) Tumor (NCI-H441 xenograft tumor, study NCI-H441#10, 10 mg/kg, 48h): 152 nM and 104 nM
RMC-6236 (nM) Tumor (NCI-H441 xenograft tumor, study NCI-H441#13, 0.3 mg/kg, 8h): 49 nM and 69.4 nM
RMC-6236 (nM) Tumor (NCI-H441 xenograft tumor, study NCI-H441#13, 1 mg/kg, 8h): 93.2 nM and 61.8 nM
RMC-6236 (nM) Tumor (sheet Ear Skin, model Capan-2, study Capan-2 #3_PHA 2023, 3 mg/kg, 2h): 208.369 nM and 141.79 nM
RMC-6236 (nM) Tumor (sheet Ear Skin, model Capan-2, study Capan-2 #3_PHA 2023, 3 mg/kg, 4h): 246.591 nM and 226.864 nM
RMC-6236 (nM) Tumor (sheet Ear Skin, model Capan-2, study Capan-2 #3_PHA 2023, 3 mg/kg, 8h): 226.864 nM and 210.835 nM
RMC-6236 (nM) Tumor (sheet Ear Skin, model Capan-2, study Capan-2 #3_PHA 2023, 3 mg/kg, 24h): 45.0028 nM and 56.9625 nM
RMC-6236 (nM) Tumor (sheet Ear Skin, model Capan-2, study Capan-2 #3_PHA 2023, 10 mg/kg, 2h): 649.767 nM and 768.131 nM
RMC-6236 (nM) Tumor (sheet Ear Skin, model Capan-2, study Capan-2 #3_PHA 2023, 10 mg/kg, 4h): 1150.35 nM and 812.517 nM
RMC-6236 (nM) Tumor (sheet Ear Skin, model Capan-2, study Capan-2 #3_PHA 2023, 10 mg/kg, 8h): 583.187 nM and 744.704 nM
RMC-6236 (nM) Tumor (sheet Ear Skin, model Capan-2, study Capan-2 #3_PHA 2023, 10 mg/kg, 24h): 124.528 nM and 245.358 nM
RMC-6236 (nM) Tumor (sheet Ear Skin, model Capan-2, study Capan-2 #3_PHA 2023, 25 mg/kg, 2h): 2170 nM and 2527.56 nM
RMC-6236 (nM) Tumor (sheet Ear Skin, model Capan-2, study Capan-2 #3_PHA 2023, 25 mg/kg, 4h): 3809.83 nM and 2897.44 nM
RMC-6236 (nM) Tumor (sheet Ear Skin, model Capan-2, study Capan-2 #3_PHA 2023, 25 mg/kg, 8h): 1985.06 nM and 2034.37 nM
RMC-6236 (nM) Tumor (sheet Ear Skin, model Capan-2, study Capan-2 #3_PHA 2023, 25 mg/kg, 24h): 818.682 nM and 430.301 nM
RMC-6236 (nM) Tumor (sheet Ear Skin, model Capan-2, study Capan-2 #3_PHA 2023, 25 mg/kg, 48h): 180.011 nM and 125.761 nM
RMC-6236 (nM) Tumor (sheet Ear Skin, model Capan-2, study Capan-2 #3_PHA 2023, 50 mg/kg, 2h): 5178.41 nM and 5646.93 nM
RMC-6236 (nM) Tumor (sheet Ear Skin, model Capan-2, study Capan-2 #3_PHA 2023, 50 mg/kg, 4h): 5314.03 nM and 6929.2 nM
RMC-6236 (nM) Tumor (sheet Ear Skin, model Capan-2, study Capan-2 #3_PHA 2023, 50 mg/kg, 8h): 5264.72 nM and 4031.76 nM
RMC-6236 (nM) Tumor (sheet Ear Skin, model Capan-2, study Capan-2 #3_PHA 2023, 50 mg/kg, 24h): 1086.23 nM and 1294.6 nM
RMC-6236 (nM) Tumor (sheet Ear Skin, model Capan-2, study Capan-2 #3_PHA 2023, 50 mg/kg, 48h): 377.284 nM and 445.097 nM
RMC-6236 (nM) Tumor (sheet Ear Skin, model Capan-2, study Capan-2 #3_PHA 2023, 100 mg/kg, 2h): 12329.5 nM and 13932.4 nM
RMC-6236 (nM) Tumor (sheet Ear Skin, model Capan-2, study Capan-2 #3_PHA 2023, 100 mg/kg, 8h): 8297.78 nM and 11552.8 nM
RMC-6236 (nM) Tumor (sheet Ear Skin, model Capan-2, study Capan-2 #3_PHA 2023, 100 mg/kg, 24h): 1553.52 nM
RMC-6236 (nM) Tumor (sheet Ear Skin, model KP-4, study KP-4 #5, 25 mg/kg, 4h): 2332.75 nM and 1993.69 nM
RMC-6236 (nM) Tumor (sheet Ear Skin, model KP-4, study KP-4 #5, 25 mg/kg, 8h): 2441.25 nM and 2617.56 nM
RMC-6236 (nM) Tumor (sheet Ear Skin, model KP-4, study KP-4 #5, 25 mg/kg, 48h): 162.75 nM and 256.331 nM
RMC-6236 (nM) Tumor (sheet colon, Capan-2, Capan-2 #3_PHA 2023, 3 mg/kg, 2h): 1565.85 nM and 1134.32 nM
RMC-6236 (nM) Tumor (sheet colon, Capan-2, Capan-2 #3_PHA 2023, 3 mg/kg, 8h): 865.534 nM and 498.114 nM
RMC-6236 (nM) Tumor (sheet colon, Capan-2, Capan-2 #3_PHA 2023, 10 mg/kg, 4h): 4586.59 nM and 2317.95 nM
RMC-6236 (nM) Tumor (sheet colon, Capan-2, Capan-2 #3_PHA 2023, 10 mg/kg, 8h): 2243.98 nM and 1911.08 nM
RMC-6236 (nM) Tumor (sheet colon, Capan-2, Capan-2 #3_PHA 2023, 25 mg/kg, 2h): 7040.17 nM and 8347.1 nM
RMC-6236 (nM) Tumor (sheet colon, Capan-2, Capan-2 #3_PHA 2023, 25 mg/kg, 4h): 5745.57 nM and 4808.52 nM
RMC-6236 (nM) Tumor (sheet colon, Capan-2, Capan-2 #3_PHA 2023, 25 mg/kg, 8h): 4389.32 nM and 4007.1 nM
RMC-6236 (nM) Tumor (sheet colon, Capan-2, Capan-2 #3_PHA 2023, 50 mg/kg, 2h): 11219.9 nM and 18371 nM
RMC-6236 (nM) Tumor (sheet colon, Capan-2, Capan-2 #3_PHA 2023, 50 mg/kg, 4h): 10307.5 nM and 6510 nM
RMC-6236 (nM) Tumor (sheet colon, Capan-2, Capan-2 #3_PHA 2023, 50 mg/kg, 24h): 126.994 nM and 101.842 nM
RMC-6236 (nM) Tumor (sheet colon, Capan-2, Capan-2 #3_PHA 2023, 100 mg/kg, 2h): 24782.4 nM and 20713.6 nM
RMC-6236 (nM) Tumor (sheet colon, Capan-2, Capan-2 #3_PHA 2023, 100 mg/kg, 4h): 28111.4 nM and 21823.3 nM
RMC-6236 (nM) Tumor (sheet colon, Capan-2, Capan-2 #3_PHA 2023, 100 mg/kg, 24h): 371.119 nM and 330.432 nM
RMC-6236 (nM) Tumor (sheet colon, KP-4, KP-4 #5, 25 mg/kg, 4h): 6252.31 nM and 5628.44 nM
